Reference: the supplement of paper PMC3334620
In all, about 33,000 sequences were measured (“E-score (-0.5 to 0.5)”: median about -0.056, highest 2% from about 0.38 on). The list shows a part of the results.

The sequences below were run against Stb4 (UniProt P50104) (assay: PBM E-score (8-mer binding enrichment) (E-score (-0.5 to 0.5)); higher = stronger / more preferred TF binding; most listed sequences are background and not binding sites). Settings: protein concentration: 200 nM; construct: GST-DNA-binding domain.
In short: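 Using PURExpress in vitro transcription/translation, GST-tagged yeast transcription factors were made in full-length or DNA-binding-domain form. These were applied at about 100-200 nM to double-stranded universal all-10-mer Agilent arrays, and bound protein was detected with fluorescent anti-GST. Scans were normalised with masliner before the Universal PBM Analysis Suite assigned E-scores to ungapped eight-base words pooled with their reverse complements.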

Row | Sequence | PBM E-score
1 | CGAATTCA | 0.195
2 | CTGGATCA | -0.141
3 | AAATGGCG | -0.0299
4 | CCTACGTA | -0.169
5 | CGGCAATA | 0.34
6 | TAGAACTA | -0.154
7 | AGCCAGGC | -0.28
8 | ATGAGGCG | -0.0172
9 | ATCGGTTG | 0.181
10 | ACGATAGT | -0.262
11 | CTGGGGGC | -0.214
12 | AGCAATGA | -0.207
13 | GGAGTTCA | 0.0991
14 | TGATCACA | -0.108
15 | AGCAACGG | 0.177
16 | AATGAGGG | -0.121
17 | GACAAAGC | 0.00913
18 | CTTGCACA | -0.0761
19 | CCCACGTC | -0.0653
20 | CGCGGCAG | 0.179
21 | ACTGTTTC | -0.0283
22 | ACCTATCT | -0.274
23 | AGCCCGAC | 0.0817
24 | GATCGAGC | 0.0801
25 | GACCCCTA | -0.347

Row | Sequence | PBM E-score
26 | CAGTTCCG | 0.364
27 | AAATTTGG | -0.172
28 | ATAAGCGC | -0.217
29 | ATGAGTCC | 0.0307
30 | AGAGCCAT | -0.184
31 | GCCAGTCC | 0.0695
32 | CTGCACTC | 0.0824
33 | AGACCCCG | 0.215
34 | AACCTATA | -0.0322
35 | AGCTGGTC | -0.212
36 | CGTCTAAG | -0.0829
37 | CCAAGACG | -0.09
38 | ACTGTCCA | -0.248
39 | CTTGTCGA | -0.294
40 | ACCTGGAT | -0.0324
41 | TATCGATA | -0.0571
42 | AGCCTAAG | -0.206
43 | ACGCGTAT | -0.0638
44 | GGAGTAGA | -0.0139
45 | ATCGACAG | -0.0876
46 | GTTGTCTA | -0.0662
47 | CACACAGA | -0.106
48 | CCTCGACC | -0.2
49 | CTCAGCGA | -0.00367
50 | AGCAAGCC | -0.0146

Row | Sequence | PBM E-score
51 | CCGGATGA | 0.366
52 | AAGCGTGA | -0.0651
53 | ATGAGGTC | -0.137
54 | AGTGGTCA | 0.0336
55 | CAAACGAA | -0.0891
56 | CCACCCGG | 0.273
57 | AACAAACT | -0.00836
58 | ACTCAAAG | -0.0542
59 | CGTCGAAC | -0.255
60 | AGACAAAC | -0.219
61 | CTAGTGGC | -0.312
62 | AACAGGTA | -0.0983
63 | AATAGGCC | -0.0701
64 | ACATGCAG | -0.26
65 | CTACCGAG | 0.381
66 | CTTTAATA | 0.0204
67 | TCCTGTCA | -0.0462
68 | CTAGGAAG | -0.223
69 | AAGTTCGC | -0.187
70 | ACTGCCCC | -0.0742
71 | GGAATGAA | 0.165
72 | AAGTACAT | -0.0251
73 | TCAGTAGA | -0.052
74 | CTTTAGAC | -0.294
75 | GTCTATTA | -0.00563

Row | Sequence | PBM E-score
76 | CACCCGTG | 0.186
77 | CGTGGTTC | 0.0512
78 | AATTCCCC | 0.168
79 | GGTGCGAC | -0.0806
80 | CAATCTAC | -0.0205
81 | CTGAGTAC | -0.177
82 | GCTCGGCA | 0.443
83 | CGTCTAAA | -0.0166
84 | CCGGCATA | 0.263
85 | AGGCCTAG | -0.288
86 | AGTTCAAA | 0.162
87 | AACCCTAT | -0.172
88 | CAGAATAA | -0.0851
89 | ATAAATAG | -0.0646
90 | CTGCAGAC | -0.237
91 | GCATTATA | -0.134
92 | GCTCAATA | -0.0858
93 | CCAGATAC | -0.122
94 | GTATGGAC | 0.0985
95 | GCGCACGA | -0.0528
96 | GGATATCA | 0.209
97 | AAGGACCC | 0.0403
98 | AAGACCCT | -0.17
99 | ACGAGATA | -0.184
100 | GAAAATCC | 0.187

Row | Sequence | PBM E-score
101 | AACAATGC | -0.136
102 | TCTCCACA | -0.302
103 | CACTGCGG | 0.0268
104 | CAGAGGCC | -0.204
105 | CGAACTCG | 0.268
106 | AGGCGATG | -0.0991
107 | GAGAGGAC | -0.00531
108 | CCTCAGCA | -0.123
109 | ACTCGCAG | -0.119
110 | TTATAAAA | 0.0694
111 | GAACTGTC | -0.0422
112 | AACTCCCC | -0.00768
113 | TCTACTCA | -0.12
114 | CCTATTCA | -0.0251
115 | CACTTGGC | -0.0731
116 | CCGTAATC | 0.0976
117 | CCGTCGTA | -0.0259
118 | CCTTAGAG | -0.234
119 | CAAAACTA | -0.0927
120 | AATCCTCA | -0.264
121 | AAGCTGCC | 0.0027
122 | GGATCGAA | 0.214
123 | CAACCGTA | -0.0391
124 | AAATAGCG | -0.102
125 | CGCTATCA | -0.0118

Row | Sequence | PBM E-score
126 | GACGCACC | -0.106
127 | AACTCCCA | -0.104
128 | ACACCTTG | -0.135
129 | AGGCCTAA | -0.108
130 | ATAATATG | -0.0706
131 | CCCCTGTC | -0.252
132 | CCGTTTTC | 0.19
133 | ACCTTGTA | -0.053
134 | GTCGGTGA | 0.0937
135 | GATCCCTA | -0.0232
136 | CACGAAAA | -0.0798
137 | CTCCGCTA | -0.0461
138 | AAGTCCGC | 0.0523
139 | CGCCTGCC | -0.0366
140 | GCTACCGA | 0.332
141 | AGGTCCGG | 0.163
142 | ACAGAACG | -0.11
143 | ACGCTGCA | -0.139
144 | CCGAGAAC | 0.414
145 | AAGCTCAT | -0.164
146 | GCTCTCAC | -0.151
147 | CCTCACCC | 0.0962
148 | AGGATCCA | -0.0863
149 | AACCTCTT | 0.068
150 | AACGCTAC | -0.0404

Row | Sequence | PBM E-score
151 | GCAAATCA | -0.158
152 | ATATCGTC | -0.0532
153 | TAACACAA | -0.0123
154 | AGACAAGA | 0.106
155 | CGGTAGAC | 0.205
156 | AACGTCCT | -0.116
157 | AATTGCGA | -0.127
158 | AATATCAA | -0.0948
159 | AGCTTGGA | -0.315
160 | ACAGGTCC | -0.0369
161 | GAAAGTTC | 0.101
162 | GATCGAAA | 0.0885
163 | GAAGATTC | 0.114
164 | AAGAGTTC | -0.128
165 | TCCTTCGA | -0.0707
166 | ATAAGGTA | 0.0815
167 | GCTGCCGA | 0.378
168 | CCGCCTAA | 0.0083
169 | GTACTCTA | -0.193
170 | GAACACTC | 0.0957
171 | CTTTCGCC | -0.0565
172 | ACAACGCT | -0.279
